B1: LINE1-full (parent)
chain: UACGUAGGUGGUUUUCCCCUGAUAGUGCUAAGGGGGCCUGGAAGUUUGGACUGGGCAGAGCUCAACACAGCGUGGCAAAGUGGCUGUGGCUAGACUGCCUCUCUGGAUUCCUCGUCACUCAGCAGGGCAUCUCUGAGAGAAAUGCC

Read counts are not given, so values of variants with three or more changes are uncertain.

This data set covers variants of B1. The data set can be described thus: self-cleavage, relative activity (ratio to wild type); higher = more cleavage; in vitro, sequencing; the parent is a self-cleaving ribozyme.
Regarding UACGUAGGUGGUUUUCCCCUGAUAGUGCUAAGGGGGCCUGGAGGUUUGGACUGGGCAGAGCUCAACACAGCGUGGCAAAGUGGCCUUGGCUAGACUGCCUCUCUGGAUUCCUCGUCACUCAGCAGGGCAUCUCUGAGAGAGAUGCC [A43G U85C G86U A141G], the self-cleavage stood at 0.06.
Turning to UACGUAGGUGGUUUUCCCCUGAUAGUGCUAAGGGGGCCUGGAGGUUUGGACUGGGCAGAGCCCAACACAGCGUAGCAAAGUGGCUGUGGCUAGACUGCCUCUCUGGAUUCCUCGUCACUCAGCAGGGCAUCUCUGAGAGAAAUGCC [A43G U62C G74A], the self-cleavage amounted to 0.06.
In the case of UACGUAGGUGGUUUUCCCCUGAUAGUGCUAAGGGGGCCUGGAGGUUUGGACUGGGCAGAGCUCAACACAGCGUGGCAAAGUGGCUGUGGCUAGACUGCCUCACUGGAUUCCUCGUCACUCAGCUGGGCAUCUCUGAGAGAGAUGCC [A43G U102A A124U A141G] it was 0.1.
In the case of UACGUAGGUGGUUUUCCCCUGAUAGUGCUAAGGGGGCCUGGAGGUUUGGACAGGGCAGAGCUCAACACAGCGUGGCAAAGUGGCUGUGGCUAGACUGCCUCUCUGGAUUCCUCGUCACUCAGCAGGGCAUCUCCGAGAGAAAUGCC [A43G U52A U134C] it was 0.92.
In the case of UACGUAGGUGGUUUUCCCCUGAUAGUGCUAAGGGGGCCUGGAGGUUUGGACUGGGCAGAGCACAACACAGCGUGGCAAAGUGUCUGUGGCUAGACUGCCUCUCUGGAUUCCUCGUCACUCAGCAGGGCAUCUCUGAGAGAAAUGCC [A43G U62A G83U] it was 0.05; in that of UACGUAGGUGGUUUUCCCCUGAUAGUGCUAAGGGGGCCUGGAGGUUUGGACUGGGCAGAGCUCAACACAGCGUGGCAAAGCGGCUGUGGCUAGACUGCCUCUCUGGAUUCCUCGUCACUCAGCAGGGCACCUCUGAGAGAGAUGCC [A43G U81C U130C A141G], 1.84; in that of UACGUAGGUGGUUUUCCCCUGAUAGUGCUAAGGGGGCCUGGAGGUUUGGACUGGGCAGAGCUCAACACAGCGUGGCAAAGUGGCUGUGGCUAGACGGCCUCUCAGGAUUCCUCGUCACUCAGCAGGGCAUCUCUGAGAGAAAUGCC [A43G U96G U104A], 0.27.
Take UACGUAGGUGGUUUUCCCCUGAUAGUGCUAAGGGGGCCUGGAGGUUUGGACUGGGCAGAGCCCAACACAGCGUGGCAAAGAGGCUGUGGCUAGACUGCCUCUCUGGAUUCCUCGUCACUCAGCAGGGCAUCUCUGAGAGAAGUGCC [A43G U62C U81A A142G]: the self-cleavage worked out at 0.21.
In the case of UACGUAGGUGGUUUUCCCCUGAUAGUGCUAAGGGGGCCUGGAGGUUUGGACUGGGCAGAGCACAACACAGCGUGGCAAAGUGGCUGUGGCUAGACUGCCCCUCUGGAUUCCUCGUCACACAGCAGGGCAUCUCUGAGAGAAAUGCC [A43G U62A U100C U119A] it was 0; in that of UACGUAGGUGGUUUUCCCCUGAUAGUGCUAAGGGGGCCUGGAGGUUUGGACUGGGCAGAGCUCAACACAGCGUGGCAAAGUGGCUGUGGCUAGACAGCCUCUCUGGGUUCCUCGUCACUCAGCAGGGCAUCUCUGAGAGAAAUGCC [A43G U96A A107G], 0.08; in that of UACGUAGGUGGUUUUCCCCUGAUAGUGCUAAGGGGGCCUGGAGGUUUGGACAGGGCAGAGCUCAACACAGCGUAGCAAGGUGGACGUGGCUAGACUGCCUCUCUGGAUUCCUCGUCACUCAGCAGGGCAUCUCUGAGAGAAAUGCC [A43G U52A G74A A79G C84A U85C], 0.13.
UACGUAGGUGGUUUUCCCCUGAUAGUGCUAAGGGGGCCUGGAGGUUUGGACUGGGCAGAGCUCAACACAGCGUGGCAAAGUGGCUGUGGCUAGACUGCCUCCCUGGAUUCCUCGUCACUCAGCAGAGCAUCUCUGAGAGAAAUGCC [A43G U102C G126A]: the self-cleavage amounted to 1.71.
In the case of UACGUAGGUGGUUUUCCCCUGAUAGUGCUAAGGGGGCCUGGAGGUUUGGACUGGGCAGAGCCCAACACAGCGUGGCAAAGUGGCUGUGGCUAGACUGCCUCUCUGGAUCCCUCGUCACUCAGCAGGGCAUCUCUGAGAGAAAUGCC [A43G U62C U109C] it was 0; in that of UACGUAGGUGGUUUUCCCCUGAUAGUGCUAAGGGGGCCUGGAGGUUUGGACUGGGCAGAGCUCAACACAGCGUGGCAAAGUGGCCGUGGCUAGACUGCCCCUCUGGAUUCCUCGUCACUCAGCAGGGCAUCACUGAGAGAAAUGCC [A43G U85C U100C U132A], 0; in that of UACGUAGGUGGUUUUCCCCUGAUAGUGCUAAGGGGGCCUGGAGGUUUGGACAGGGCAGAGCUCAACACAGCGUGGCAAAGUGGCUGUGGCUAGACUGCCACUCUGGAUUCCUCGCCACUCAGUAGGGCAUCUCUGAGAGAAAUGCC [A43G U52A U100A U115C C123U], 1.73.
Consider UACGUAGGUGGUUUUCCCCUGAUAGUGCUAAGGGGGCCUGGAGGUUUGGACUGGGCAGAGCCCAACACAGCGUGGCAAAGUGGCUGUGGCUAGACUGCCUCUCUGGAUUCCUCGUCACUCAGCAGGGCAUCUCUGAGAGAGAUGCC [A43G U62C A141G], for which the self-cleavage turned out to be 0.05.
In the case of UACGUAGGUGGUUUUCCCCUGAUAGUGCUAAGGGGGCCUGGAGGUUUGGACUGGGCAGAGCACGACACAGCGUGGCAAAGUGGCUGUGGCUAGACUGCCUCUCUGGAUUCCUCGUCACUCAGCAGGGCAUCUCUGAGAGAAGUGCC [A43G U62A A64G A142G] it was 0.19.
To UACGUAGGUGGUUUUCCCCUGAUAGUGCUAAGGGGGCCUGGAGGUUUGGACUGGGCAGAGCUCAACACAGCGUGGCAAAGUGGCUGUGGCUAGACUGCCUCCCUGGAUUCCCCGUCACUCAGCAGGGCAUCUCUGAGAGAAAUGCC [A43G U102C U112C] belongs 1.06; to UACGUAGGUGGUUUUCCCCUGAUAGUGCUAAGGGGGCCUGGAGGUUUGGACCUGGCAGAGCUCAACACAGCGUGGCAAAGUGGCUGUGGCUAGACUGCCACUCUGGAUUCCUCGUCACUCAGCAGGGCAUCUCUGAGAGAAAUGCC [A43G U52C G53U U100A], 1.05.
To UACGUAGGUGGUUUUCCCCUGAUAGUGCUAAGGGGGCCUGGAGGUUUGGACCGGGCAGAGCUCAACACAGCGUGACAAAGUGGCUGUGGCUAGACUGCCUCUCUGGAUUCCUCGUCACUCAGCAGGGCAUCUCUGAGAGAAAUGCC [A43G U52C G75A] belongs 0.2.

Source of the values: the RNAGym collection of RNA variant scans (doi:10.7554/elife.90254).
